According to PubChem BioAssay AID686978 (National Center for Advancing Translational Sciences (NCATS), 2013):
“And” between values parts separate entries of the source, which are not always exact repeats. Equal values may be shown once. Hit rate of the full screen: of about 420,000 compounds, about 64,000 (15%) were called active. The shares of active, inactive and inconclusive entries below differ from those in the screen. Calls come from the whole dose curve; as a rule, active = well fitted inhibition curve with a large enough effect; inconclusive = small, poorly fitted or top-dose-only effect; inactive = flat fitted curve, though single readings scatter. Potencies of inconclusive entries are left out as doubtful fits.

Experiment: qHTS for Inhibitors of human tyrosyl-DNA phosphodiesterase 1 (TDP1): qHTS in cells in absence of CPT; note: nearly all actives have a fitted effect of over 55% in size
Conditions: DT40 Tdp1-/- hTDP1 cells, no CPT, ATP luminescence, 48 h; activity change, negative = growth inhibition: at 46.2 µM (top of the series) unless noted
Procedure, shortened: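 Seeded 400 DT40-hTDP1 cells/well (vehicle DMSO, no 20 nM CPT); pinned compounds; ≥48 hr at 37 °C; CellTiter-Glo luminescence as viability measure.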
% is set by controls: 0 for no effect and ±100 for the full control effect; potency is the fitted concentration of half-maximal effect; tags give direction and shape of the fitted curve.

| Compound | Potency | activity change, negative = growth inhibition |
| --- | --- | --- |
| COc1ccc(CCN2CCCC(CN(C)C(=O)c3ccoc3)C2)cc1 (configuration not stated) | inactive | – |
| Cc1n[nH]c(=S)n1/N=C/c1ccccc1OCc1ccc(Cl)cc1Cl | inconclusive [inhibitor, partial curve] | – |
| CCOc1ccc2c(c1)c(N=NC(N)=S)c(O)n2C | inactive | – |
| CC(=O)c1sc(NC(=O)c2ccccc2F)nc1C | inconclusive [inhibitor, single point] | – |
| CCOC(=O)CCC(=O)Nc1ccc(S(=O)(=O)N2CCc3ccccc32)cc1 | inactive | – |
| O=C(CSc1nnc(-c2ccc(F)cc2)c2ccccc12)Nc1cccc(Cl)c1 | inconclusive [inhibitor, single point] | – |
| Cc1ccn(C(CC(=O)c2ccc(Br)cc2)C(=O)O)n1 (configuration not stated) | inactive | – |
| Cc1nc2cc(NC(=O)Nc3cccc([N+](=O)[O-])c3)ccc2n1C | inactive | – |
| CC(=O)c1ccc(N2CCN(C(=O)C3CCN(C(=O)Nc4ccccc4)CC3)CC2)cc1 | inconclusive [inhibitor, partial curve] | – |
| CN1CCc2c(sc(NC(=O)C3CCCCC3)c2C(N)=O)C1 | inactive | – |
| O=C(NCCCn1ccnc1)c1cc(-c2ccc(Cl)cc2)nc2ccccc12 | inconclusive [inhibitor, single point] | – |
| COc1ccc(S(=O)(=O)Nc2c(C)nn(C)c2C)cc1Br | inconclusive [inhibitor, single point] | – |
| COc1ccccc1C(=O)Nc1nnc(S(=O)(=O)N2CCCCC2)s1 | inconclusive [inhibitor, single point] | – |
| COc1cc2oc(=O)c3c(c2cc1OCC(=O)c1c(C)n(C)c2ccccc12)CCCC3 | inconclusive [inhibitor, partial curve] | – |
| FC(F)Oc1ccc(-c2csc(=Nc3cccnc3)n2CC2CCCO2)cc1 (configuration not stated) | active: 13 µM | – |
| Cc1cccc2c1-c1sc(C(=O)NCCCN3CCC(C)CC3)cc1CO2 | inconclusive [inhibitor, single point] | – |
| CCn1c(=O)c(C(=O)CN2CCCc3ccccc32)c(N)n(Cc2ccccc2)c1=O | inconclusive [inhibitor, single point] | – |
| CC(C)c1cnc2c(c1SCC(=O)c1ccc(Cl)cc1)c(=O)n(C)c(=O)n2C | active: 23.1 µM | – |
| Cc1ccc[n+](CC(=O)/C=C2\N(C)c3ccccc3C2(C)C)c1 | active: 1.64 µM | – |
| Cc1cc(NS(=O)(=O)c2ccc(NC(=O)c3cccc(OC(F)F)c3)cc2)nc(C)n1 | inactive | – |
| CCn1cc(C(=O)Nc2ncccc2O)c(=O)c2cc(F)c(N3CCN(C(=O)c4ccco4)CC3)cc21 | active: 8.2 µM | – |
| COc1ccccc1NC(=O)CSc1ncc(CO)n1Cc1ccc(F)cc1 | inconclusive [inhibitor, partial curve, poor fit] | – |
| COc1ccc(/C=C/C2=Nc3ccccc3NC(C)(C)C2)cc1OC | inconclusive [inhibitor, single point] | – |
| COc1ccc(C(=O)CSc2nnc(-c3ccco3)o2)cc1 | inactive | – |

| Compound | Potency | activity change, negative = growth inhibition |
| --- | --- | --- |
| Cc1occc1C(=O)NC(C)C(C)(C)C (configuration not stated) | inactive | – |
| Cn1c(=O)c2c(-c3ccccc3)n(-c3cc([N+](=O)[O-])ccc3N)cc2n(C)c1=O | inconclusive [inhibitor, single point] | – |
| COc1ccc(CN(Cc2cc3cccc(C)c3n3nnnc23)C(=O)N2CCOCC2)cc1 | inconclusive [inhibitor, partial curve] | – |
| CN(c1ccccc1)S(=O)(=O)c1ccc(NC(=O)C2CC2)cc1 | inactive | – |
| CC(C)c1ccc2[nH]c(O)c(N=NC(=O)c3ccc(CSc4nncn4C)cc3)c2c1 | active: 16.4 µM | – |
| CN(C)C(=O)c1c(NC(=O)c2ccccc2)sc2c1CCC2 | – | inconclusive: -30.9% [inhibitor] |
| CCN1C2=NCCCN2c2cc(C)c(C)cc21 | inconclusive [inhibitor, single point] | – |
| Cc1cc2ccccc2c(=O)n1CC(=O)N1CCN(c2cccc(Cl)c2)CC1 | inactive | – |
| COc1ccc(N(CC(O)CN2CCCCC2)S(=O)(=O)c2ccc(C)cc2)cc1 (configuration not stated) | inactive | – |
| Cc1cc(-c2ccccc2)nc2cc(C(=O)Nc3ccc(Cl)c(Cl)c3)nn12 | inconclusive [inhibitor, partial curve] | – |
| COc1ccc(NC(=O)c2cc3ccccc3[nH]2)cc1 | inconclusive [inhibitor, single point] | – |
| Cc1ccc(C(=O)Nc2nnc(SCC(=O)N3CCCc4ccccc43)s2)cc1 | – | inconclusive: -30.6% [inhibitor] |
| O=C(c1ccc2c(=O)n3c(nc2c1)CCCCC3)N1CCN(c2ccccc2)CC1 | inconclusive [inhibitor, single point] | – |
| O=C(CCCOc1ccccc1)N1CCN(c2ccccn2)CC1 | inconclusive [inhibitor, single point] | – |
| COc1ccccc1NS(=O)(=O)c1cc(NC(=O)CNC(=O)c2ccccc2)ccc1C | inactive | – |
| COC(=O)c1sccc1S(=O)(=O)Nc1ccc(Cl)cc1 | inconclusive [inhibitor, full curve] | – |
| COc1ccc(CCn2c(=N)c(C(=O)NC3CCCC3)cc3c(=O)n4cccc(C)c4nc32)cc1 | active: 1.84 µM | – |
| Cn1ncc([N+](=O)[O-])c1C(=O)N/N=C/c1ccc(F)cc1 | inactive | – |
| CCN(CC)S(=O)(=O)c1ccc(OC)c(NC(=O)CSc2cc(C)ccc2C)c1 | inconclusive [inhibitor, single point] | – |
| CCn1c2ccccc2c2cc(/C=C3/C=Cc4ccccc43)ccc21 | inconclusive [inhibitor, single point] | – |
| O=C(Cc1ccc(NC(=O)C2CCCN(C(=O)C3CCCCC3)C2)cc1)Nc1cccc(C(=O)N2CCCC2)c1 (configuration not stated) | inconclusive [inhibitor, full curve, poor fit] | – |
| COc1ccc(Nc2nc(C)c3ccccc3n2)cc1 | inactive | – |
| C#CCOc1c(Br)cc(C2C(C(=O)OC)=C(C)NC3=C2C(=O)c2ccccc23)cc1OCC (configuration not stated) | active: 5.8 µM | – |
| Cc1ccc(C)c(N(CC(=O)NC2CCCC2)C(=O)c2oc(C(C)(C)C)cc2C)c1 | active: 9.2 µM | – |

| Compound | Potency | activity change, negative = growth inhibition |
| --- | --- | --- |
| CC(C)Oc1ccc(CCNC(=O)C2CCC(=O)N(Cc3cccc(F)c3)C2)cc1 (configuration not stated) | – | inconclusive: -32.8% [inhibitor] |
| CC1SC(C)C(=O)N(CC(=O)NCc2ccc(F)cc2)C1=O (configuration not stated) | inactive | – |
| NS(=O)(=O)c1ccc(CNC(=O)CSc2nc3ccc(Cl)cc3[nH]2)cc1 | inactive | – |
| CCOC(=O)c1ccccc1NC(=O)c1cn(-c2ccc(OC)cc2)c(=O)c2ccccc12 | inconclusive [inhibitor, single point] | – |
| Cc1c(N=Cc2nc3ccccc3[nH]2)c(=O)n(-c2ccccc2)n1C | inconclusive [inhibitor, full curve, poor fit] | – |
| CCCN(CCC)CCCNC(=S)Nc1ccc2nc(N3CCCC3)cc(C)c2c1 | active: 13 µM | – |
| Cc1ccc(-c2nnc(Nc3cccc(Br)c3)c3ccccc23)cc1S(=O)(=O)N1CCN(C)CC1 | active: 18.4 µM | – |
| Cn1c(=O)c2c(SCC(=O)Nc3ccccc3F)nc(-c3ccccc3F)nc2n(C)c1=O | active: 14.6 µM | – |
| CC(C)(C)c1nc(NCCO)c2nnn(Cc3ccccc3)c2n1 | inconclusive [inhibitor, partial curve] | – |
| O=C(/C=C/c1cc2c(cc1Br)OCO2)NCc1ccc(Cl)cc1 | inactive | – |
| CC(C)n1c(O)c(N=NC(=O)CNC(=O)Cc2ccc(Cl)cc2)c2ccccc21 | inconclusive [inhibitor, single point] | – |
| O=C(c1ccc(OC2CCN(Cc3ccccc3C(F)(F)F)CC2)cc1)N1CCCCC1 | inconclusive [inhibitor, single point] | – |
| COc1ccc(-n2c(Cc3ccccc3)nnc2SCC(=O)N2CCCc3ccccc32)cc1 | inconclusive [inhibitor, single point] | – |
| CN1C(=O)CSc2ccc(NC(=O)N3CCN(c4ccccn4)CC3)cc21 | inconclusive [inhibitor, single point] | – |
| Cc1ccc(C)c(Cn2c(=O)n(CCc3ccccc3)c(=O)c3c(C)c(C)sc32)c1 | inactive | – |
| O=C(CSc1ncnc2c1oc1ccccc12)N1CCN(c2ccccc2)CC1 | active: 29.1 µM | – |
| Cc1c(Cl)cccc1NC(=S)N(Cc1cccs1)C1CCCC1 | inactive | – |
| COc1ccc(Cn2nc3n(c2=O)-c2ccccc2OC3)cc1 | inconclusive [inhibitor, single point] | – |
| C=CCN1c2ccccc2[C@]23C[C@@H](C(=O)OC)N(C(=O)c4cccs4)C2=NC(C(=O)OC)=C(C(=O)OC)[C@H]13 | inconclusive [inhibitor, single point] | – |
| C=C[C@@H]1c2ccccc2N(S(=O)(=O)c2ccc(C)cc2)[C@H](c2ccc(C(F)(F)F)cc2)C1(C#N)C#N | active: 8.91 µM and active: 11.6 µM | – |
| CSc1ccc(CCNS(=O)(=O)c2cc(-c3cc(C)no3)ccc2C)cc1 | active: 20.6 µM | – |
| CCOc1ccc(OC(=O)c2sc3ncn(Cc4cccc(F)c4)c(=O)c3c2C)cc1 | inconclusive [inhibitor, single point] | – |
| CCN(CC(=O)Nc1c(F)cccc1F)C(=O)CSc1nc(C)cc(C)n1 | inactive | – |
| CCC1(C2CCN(Cc3cccc(Cl)c3)CC2)NC(=O)N(CC2COc3ccccc3O2)C1=O (configuration not stated) | inconclusive [inhibitor, single point] | – |
